Where “and” joins values, the source holds several entries; their conditions need not be identical. Equal values may be shown once. Among all 420,000 compounds or so, about 50,000 (12%) were called active. This list was built around the results that the source calls inconclusive (neither active nor inactive); the mix of calls is not that of the screen. The call rests on the fitted dose curve; in most records, active means well fitted inhibition curve with a large enough effect; inconclusive means small, poorly fitted or top-dose-only effect; inactive means flat fitted curve, though single readings scatter. Potencies beside an inconclusive call are fits to weak or partial responses and may not hold up.
assay: qHTS for Inhibitors of human tyrosyl-DNA phosphodiesterase 1 (TDP1): qHTS in cells in presence of CPT; conditions: chicken DT40 Tdp1-/-;hTDP1 cells + 20 nM CPT, ATP luminescence, 48 h; activity change, negative = growth inhibition: at 46.2 µM (top of the series); further: nearly all actives have a fitted effect of over 55% in size
Method in brief: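 Chicken DT40 Tdp1-/- cells stably complemented with human TDP1 were seeded at 400 cells/well in medium containing 20 nM camptothecin, exposed to pin-transferred compounds, and grown at 37 °C for at least 48 hr. Viability was read as ATP luminescence.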
On the % scale 0 is the no-effect control and ±100 the full control effect; potency means the concentration at half of the fitted maximal effect; tags describe the fitted curve by direction and shape.

| Compound | Potency | activity change, negative = growth inhibition |
| --- | --- | --- |
| O=C(NC(=S)NNC(=O)c1cc2ccccc2cc1O)c1ccco1 | inconclusive: 23.1 µM [inhibitor, single point] | – |
| CC(C)C(=O)Nc1nc2cc3c(cc2s1)OCCO3 | active: 20.6 µM | – |
| Cc1ccc(C(=O)N2CCN(c3ccc(NC(=O)COc4ccccc4C)cc3)CC2)cc1 | active: 4.11 µM | – |
| O=C(Nc1ccccc1)Nc1ccc(Oc2cccnc2)nc1 | inconclusive: 29.1 µM [inhibitor, single point] | – |
| CCc1ccc(N2CC(C(=O)N3CCN(c4ccc([N+](=O)[O-])cc4)CC3)CC2=O)cc1 (stereo not given) | – | inactive: -31.6% |
| Cc1cc(C)n(C2CCCCC2OC(=O)CCc2ccccc2)n1 (stereo not given) | – | inconclusive: -33.7% [inhibitor] |
| Cc1c(-c2ccccc2)c(=O)oc2c(CN3CCOCC3)c(O)ccc12 | inconclusive: 16.4 µM [inhibitor, single point] | – |
| CC1=C(C(=O)OC(C)C)C(c2ccco2)NC(=O)N1 (stereo not given) | – | inactive: -15.7% |
| CN(CC(=O)Nc1ccc(Cl)c(Cl)c1)C(=O)c1cccc2cccnc12 | inconclusive: 29.1 µM [inhibitor, single point] | – |
| Cc1ccccc1CN1CCCN(CC(=O)Nc2ccc(F)cc2)S1(=O)=O | inconclusive: 20.6 µM [inhibitor, partial curve] | – |
| O=C(c1ccccc1)C(c1ccccc1)[n+]1csc2ccccc21 (stereo not given) | inconclusive: 35.5 µM [inhibitor, single point] | – |
| Cc1cccc(NC(=O)c2cn(-c3ccccc3)nc2-c2ccccc2)c1C | inconclusive: 25.9 µM [inhibitor, single point] | – |
| CCCOc1ccc([C@@H]2C3CN(C(=O)OCC)CC=C3C(C#N)=C(N)C2(C#N)C#N)cc1OC (stereo not given in full) | inconclusive: 14.6 µM [inhibitor, partial curve] | – |
| COc1ccc(N(CC(=O)Nc2ccc(C)cc2)S(=O)(=O)c2c(C)noc2C)cc1 | inconclusive: 14.6 µM [inhibitor, single point] | – |
| COc1cccc(NS(=O)(=O)c2ccc3[nH]cc(C(=O)NC(C)c4ccccc4)c(=O)c3c2)c1 (stereo not given) | inconclusive: 29.1 µM [inhibitor, single point] | – |
| O=c1oc(-c2ccccc2Br)nc2ccccc12 | inconclusive: 29.1 µM [inhibitor, single point] | – |
| O=C(O)c1cccc(NC(=O)c2cc(-c3cccc(Cl)c3)nc3ccccc23)c1 | – | inactive: 9.84% |
| CCOC(=O)C1(CCOc2ccccc2)CCN(Cc2ccc3c(c2)OCCO3)CC1 | inconclusive: 23.1 µM [inhibitor, single point] | – |
| O=S(=O)(Nc1ccc2c(c1)nc1n2CCN(Cc2ccccc2)C1)c1ccccc1 | active: 23.1 µM | – |
| O=C(NCCC1=CCCCC1)C(=O)NCC(c1ccco1)N1CCN(c2ccccc2F)CC1 (stereo not given) | inconclusive: 18.4 µM [inhibitor, single point] | – |
| CC(C)(C)OC(=O)N1CCc2onc(-c3ccc(-n4cc(C5=CCCCC5)nn4)cc3)c2C1=O | inconclusive: 20.6 µM [inhibitor, single point] | – |
| CC(C)c1ccc(NC(=O)Cn2nnc(C(=O)NCc3ccc4c(c3)OCO4)c2N)cc1 | inconclusive: 18.4 µM [inhibitor, single point] and inconclusive: 10.3 µM [inhibitor, partial curve] | – |
| S=c1nc2ccccc2c2nc(-c3ccccc3Br)[nH]n12 | active: 2.06 µM | – |

| Compound | Potency | activity change, negative = growth inhibition |
| --- | --- | --- |
| S=C(Nc1ccc(Cl)cc1Cl)Nn1cnnc1 | – | inactive: 0.0158% |
| CCN1C(=O)[C@H]2[C@H]3CN=C(SCc4ccc(C(=O)OC)cc4)N3[C@@](CC)(C(=O)OC)[C@H]2C1=O | inconclusive: 29.1 µM [inhibitor, single point] | – |
| CCc1ccc(C(=O)N2CCCN(C)CC2)s1 | – | inactive: 15.8% |
| CCCCSc1[nH]c(=O)c(C(=O)OCC)cc1C#N | – | inactive: -15.2% |
| CCC(C)c1ccccc1NC(=O)c1cccc(-n2cnnn2)c1 (stereo not given) | – | inactive: 4.48% |
| COc1ccc(NC(=O)NC(C(F)(F)F)C(F)(F)F)cc1 | – | inactive: -7.18% |
| CCOC(=O)c1c(C)oc2nc(C)nc(NCCc3ccc(Cl)cc3)c12 | inconclusive: 20.6 µM [inhibitor, single point] | – |
| CC(C)(C)NC(=O)c1cccc(NC(=O)c2ccc(NC(=O)c3ccco3)cc2)c1 | active: 13 µM | – |
| COc1ccccc1-c1ccc2c(c1)C(C)(Cc1ccc(F)c(Cl)c1)C(=O)N2 (stereo not given) | inconclusive: 20.6 µM [inhibitor, single point] | – |
| c1cc2c(cc1C1=Nn3c(nnc3C3CCCCC3)SC1)OCO2 | active: 18.4 µM | – |
| CCOC(=O)c1c(-c2ccc(C)cc2)csc1NC(=O)CCN1CCOCC1 | inconclusive: 25.9 µM [inhibitor, single point] | – |
| O=C(NCCC1=CCCCC1)C1CCCN(S(=O)(=O)c2cccc3cccnc23)C1 (stereo not given) | inconclusive: 29.1 µM [inhibitor, single point] | – |
| COc1cccc(-c2cnc3c(NC=O)cc(-c4ccc(N5CCN(C)CC5)cc4)cn23)c1 | active: 16.4 µM | – |
| CNCc1ccccc1OCC(=O)Nc1ccccc1 | – | inactive: 1.67% |
| CCOc1ccc(NC(=O)Cc2ccccc2)c([N+](=O)[O-])c1 | – | inconclusive: -32.5% [inhibitor] |
| Cc1cc(-c2csc(N)n2)c(C)n1CCC(C)C | inconclusive: 23.1 µM [inhibitor, single point] | – |
| CC1(C)CC(=O)C2=C(C1)N1C(=C(C#N)C2c2ccc(Cl)cc2)N=C(N)c2ccccc21 (stereo not given) | inconclusive: 29.1 µM [inhibitor, single point] | – |
| Cc1ccc(-c2nc(SCC(=O)c3c(N)n(C)c(=O)n(C)c3=O)n[nH]2)cc1 | – | inactive: 5.04% |
| COc1ccccc1CCn1c(=O)c(-c2cn(C)c3ccccc23)nc2cncnc21 | inconclusive: 32.6 µM [inhibitor, single point] | – |
| Cc1nc2c(-c3ccccc3)c(C)nn2c(SCC(N)=O)c1Cc1ccccc1 | inconclusive: 18.4 µM [inhibitor, single point] | – |
| Cc1ccc(C(=O)Nc2ccccc2Oc2ccccc2)o1 | – | inactive: -22.7% |
| C[C@H](CO)N1C[C@H](C)[C@@H](CN(C)C(=O)Nc2ccccc2)Oc2c(NC(=O)Nc3ccc4c(c3)OCO4)cccc2C1=O | active: 13 µM | – |

— PubChem BioAssay AID686979 (National Center for Advancing Translational Sciences (NCATS), 2013)
